The values below come from the antibiotic and cytotoxicity screens of Wong et al. (2023).

One test has as its system HSkMC. The test is described as follows: cytotoxicity call (relative viability < 0.9). The conditions noted are these: 10 µM.
A further test deals with HepG2. As to the kind of experiment: cytotoxicity call (relative viability < 0.9). Conditions: 10 µM.
The next test concerns S. aureus RN4220. As to the kind of experiment: growth inhibition call (relative growth <= 0.2). Conditions: 50 µM.

This is one part of the list.

For `Cc1noc(C)c1S(=O)(=O)N(C)C[C@@H]1Oc2ccc(NC(=O)c3ccncc3)cc2CC(=O)N([C@H](C)CO)C[C@@H]1C`, the cytotoxicity call in the test on HSkMC and in the test on HepG2 was “inactive” in each case. Moreover, the growth inhibition call with S. aureus RN4220 was “inactive”.

For `COc1ccc(COC[C@@H](C)N2C[C@H](C)[C@H](CN(C)S(=O)(=O)c3ccc(Cl)cc3)Oc3ccc(NC(=O)NC(C)C)cc3C2=O)cc1`, the cytotoxicity call in the test with HSkMC and in the test on HepG2 was “inactive” in each case. For the same compound, the growth inhibition call in the test with S. aureus RN4220 is “inactive”.

As for `Cc1ccc(S(=O)(=O)Nc2ccc3c(c2)C(=O)N([C@@H](C)CO)C[C@@H](C)[C@@H](CN(C)Cc2ccccc2)OCCCC[C@@H](C)O3)cc1`, the cytotoxicity call with HSkMC and in the test on HepG2 was “inactive” in each case. Further, the growth inhibition call in the test on S. aureus RN4220 is “inactive”.

With `CN1C(=O)c2cc(NC(=O)Nc3ccccc3F)ccc2OC[C@@H]2O[C@H](CC(=O)NCc3ccc(-c4ccccc4)cc3)CC[C@@H]21`, the cytotoxicity call in the test with HSkMC and in the test on HepG2 was “inactive” throughout. Besides, in the test on S. aureus RN4220, the growth inhibition call was “inactive”.

For the compound `C[C@H](CO)N1C[C@H](C)[C@@H](CN(C)C(=O)Nc2cccc3ccccc23)Oc2c(NC(=O)c3ccc(-c4nccs4)cc3)cccc2C1=O`, the cytotoxicity call with HSkMC and in the test on HepG2 was “inactive” each time. In addition, the growth inhibition call with S. aureus RN4220 was “inactive”.

As for `COc1ccc(NC(=O)N(C)C[C@@H]2Oc3ncc(C#CCN(C)C)cc3C(=O)N([C@H](C)CO)C[C@@H]2C)cc1`, the cytotoxicity call in the test with HSkMC and in the test with HepG2 was “inactive” in each case. Further, the growth inhibition call in the test with S. aureus RN4220 was “inactive”.

Consider `O=C(O)CCN1C(=O)NC2(CCCC2)C1=O`, for which the cytotoxicity call in the test with HSkMC and in the test on HepG2 was “inactive” throughout. In addition, in the test with S. aureus RN4220, the growth inhibition call is “inactive”.

In the case of `COc1ccc(S(=O)(=O)N(C)C[C@@H]2Oc3ccc(NC(=O)CCC(F)(F)F)cc3CC(=O)N([C@@H](C)CO)C[C@@H]2C)cc1`, the cytotoxicity call in the test on HSkMC and in the test with HepG2 was “inactive” throughout. Besides, the growth inhibition call in the test on S. aureus RN4220 was “inactive”.

For `C[C@H](CO)N1C[C@H](C)[C@H](CN(C)C(=O)Nc2ccc3c(c2)OCO3)OCCCC[C@H](C)Oc2ccc(NS(=O)(=O)c3cccs3)cc2C1=O`, the cytotoxicity call in the test on HSkMC and with HepG2 was “inactive” throughout. Also, in the test on S. aureus RN4220, the growth inhibition call was “inactive”.

As for `C[C@@H]1CN([C@H](C)CO)C(=O)c2cccc(NS(=O)(=O)c3ccc(F)cc3)c2O[C@H]1CN(C)C(=O)Nc1ccc(C(F)(F)F)cc1`, the cytotoxicity call with HSkMC and with HepG2 was “inactive” throughout. The growth inhibition call with S. aureus RN4220 was “inactive”.

`C[C@@H]1CN([C@H](C)CO)C(=O)c2cccc(NC(=O)C3CC3)c2O[C@H]1CN(C)S(=O)(=O)c1cccs1`: the cytotoxicity call with HSkMC and in the test on HepG2 was “inactive” throughout. Moreover, the growth inhibition call in the test with S. aureus RN4220 is “inactive”.

`CC(N)O.Cc1cc(CC(C)CC(C)(C)C)n(O)c(=O)c1` (stereo unspecified): the cytotoxicity call with HSkMC is “inactive”. Besides, the cytotoxicity call with HepG2 is “active”. Besides, the growth inhibition call with S. aureus RN4220 was “active”.

`Cc1noc(C)c1NC(=O)Nc1ccc2c(c1)CC(=O)N([C@H](C)CO)C[C@@H](C)[C@@H](CN(C)S(=O)(=O)c1cccs1)O2`: the cytotoxicity call with HSkMC and in the test on HepG2 was “inactive” throughout. For the same compound, the growth inhibition call with S. aureus RN4220 was “inactive”.

With `C[C@@H]1CCCCO[C@H](CN(C)C)[C@@H](C)CN([C@H](C)CO)C(=O)c2cc(NC(=O)Nc3ccc(C(F)(F)F)cc3)ccc2O1`, the cytotoxicity call with HSkMC and with HepG2 was “inactive” each time. Besides, in the test with S. aureus RN4220, the growth inhibition call is “inactive”.

Consider `COc1ccc(S(=O)(=O)N[C@H]2C=C[C@@H](CC(=O)NCCc3ccncc3)O[C@@H]2CO)cc1`, for which the cytotoxicity call with HSkMC and in the test with HepG2 was “inactive” in each case. For the same compound, the growth inhibition call in the test with S. aureus RN4220 is “inactive”.

On to `C[C@@H]1CCCCO[C@@H](CN(C)S(=O)(=O)c2cn(C)cn2)[C@@H](C)CN([C@@H](C)CO)C(=O)c2cc(NS(=O)(=O)c3ccc(F)cc3)ccc2O1`, for which the cytotoxicity call with HSkMC and in the test on HepG2 was “inactive” in each case. Moreover, in the test on S. aureus RN4220, the growth inhibition call was “inactive”.

On to `C[C@H](CO)N1C[C@H](C)[C@H](CN(C)C(=O)Nc2ccc(C(F)(F)F)cc2)OCCCC[C@H](C)Oc2ccc(NS(=O)(=O)c3cn(C)cn3)cc2C1=O`, for which the cytotoxicity call in the test with HSkMC and with HepG2 was “inactive” in each case. In addition, the growth inhibition call with S. aureus RN4220 is “inactive”.

Turning to `COc1ccc(S(=O)(=O)N(C)C[C@@H]2Oc3c(NC(=O)C4CCOCC4)cccc3C(=O)N([C@@H](C)CO)C[C@H]2C)cc1`, the cytotoxicity call in the test with HSkMC and in the test with HepG2 was “inactive” throughout. For the same compound, the growth inhibition call with S. aureus RN4220 was “inactive”.

Take `Cn1cccc1[C@@H](CN)N1CCCC1`: the cytotoxicity call in the test with HSkMC and with HepG2 was “inactive” throughout. Moreover, the growth inhibition call in the test on S. aureus RN4220 is “inactive”.

As for `CO[C@@H]1CN(C)C(=O)c2cc(NS(=O)(=O)CC(F)(F)F)ccc2OC[C@H](C)N(Cc2ccccn2)C[C@H]1C`, the cytotoxicity call in the test on HSkMC and in the test on HepG2 was “inactive” each time. For the same compound, the growth inhibition call in the test with S. aureus RN4220 was “inactive”.

For the compound `C[C@@H]1CN([C@H](C)CO)C(=O)c2cccc(NS(=O)(=O)c3cn(C)cn3)c2O[C@@H]1CN(C)Cc1ccncc1`, the cytotoxicity call with HSkMC and in the test with HepG2 was “inactive” in each case. Besides, the growth inhibition call in the test on S. aureus RN4220 was “inactive”.

Consider `O=C(OCC(O)CO)c1ccccc1Nc1ccnc2cc(Cl)ccc12` (stereo unspecified), for which the cytotoxicity call in the test with HSkMC and in the test on HepG2 was “inactive” throughout. In the test with S. aureus RN4220, the growth inhibition call was “inactive”.

As for `Cc1ccc(S(=O)(=O)Nc2ccc3c(c2)CC(=O)N([C@H](C)CO)C[C@@H](C)[C@H](CN(C)S(C)(=O)=O)O3)cc1`, the cytotoxicity call with HSkMC and in the test with HepG2 was “inactive” each time. Also, in the test on S. aureus RN4220, the growth inhibition call is “inactive”.

As for `C[C@@H]1CN([C@H](C)CO)C(=O)Cc2cc(NC(=O)C3CC3)ccc2O[C@@H]1CN(C)C(=O)NC1CCCCC1`, the cytotoxicity call in the test with HSkMC and in the test with HepG2 was “inactive” each time. Besides, the growth inhibition call in the test with S. aureus RN4220 was “inactive”.

Consider `CCO[C@@H]1OC(C(=O)N2CCOCC2)=C[C@H](c2coc3ccccc3c2=O)[C@H]1CCCOC(=O)NCCCCCC(=O)NO`, for which the cytotoxicity call in the test with HSkMC and with HepG2 was “inactive” throughout. The growth inhibition call in the test on S. aureus RN4220 was “inactive”.

In the case of `CCN1OCN(c2nc(N(C)C)nc(N(C)C)n2)C1=N`, the cytotoxicity call in the test on HSkMC (human skeletal muscle cells) and in the test with HepG2 was “inactive” in each case. For the same compound, in the test on S. aureus RN4220, the growth inhibition call was “inactive”.

For `CC[C@@H]1OC(=O)[C@H](C)[C@@H](O[C@H]2C[C@@](C)(OC)[C@@H](O)[C@H](C)O2)[C@H](C)[C@@H](O[C@@H]2O[C@H](C)C[C@H](N(C)C)[C@H]2O)[C@](C)(O)C[C@@H](C)/C(=N\OCOCCOC)[C@H](C)[C@@H](O)[C@]1(C)O`, the cytotoxicity call with HSkMC and in the test with HepG2 was “inactive” throughout. Besides, the growth inhibition call with S. aureus RN4220 was “active”.
